Reference: publication PMC9911399, “Two distinct binding modes provide the RNA-binding protein RbFox with extraordinary sequence specificity”
Changes are numbered by the printed parent chain; changes in the protein carry UniProt numbers. The list shows a part of the results.

T1: RBFOX1 RRM RbFoxmut (Fox-RRM*) (Homo sapiens, UniProt Q9NWB1 109-208, R118D;E147R;N151S;E152T)
T1 sequence: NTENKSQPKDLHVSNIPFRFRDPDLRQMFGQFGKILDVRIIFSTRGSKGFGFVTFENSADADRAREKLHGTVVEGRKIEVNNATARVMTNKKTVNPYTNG

B1: UUCGUCC (DNA:RNA)
RNA: GGGAGACCGGAAUUCAGAUUGUCCUUCGUCCUUAAAUCCCGUCGUAGCCACCA
DNA 1: CAATCTGAATTCCGGTCTCCC
DNA 2: TGGTGGCTACGACGGGATT
B2: GCAGCUG (DNA:RNA)
RNA: B1 RNA with U25G, U26C, C27A, U29C, C30U, C31G
DNA 1: CAATCTGAATTCCGGTCTCCC
DNA 2: TGGTGGCTACGACGGGATT
B3: GGAUACG (DNA:RNA)
RNA: B1 RNA with U25G, U26G, C27A, G28U, U29A, C31G
DNA 1: CAATCTGAATTCCGGTCTCCC
DNA 2: TGGTGGCTACGACGGGATT
B4: UCACAAG (DNA:RNA)
RNA: B1 RNA with U26C, C27A, G28C, U29A, C30A, C31G
DNA 1: CAATCTGAATTCCGGTCTCCC
DNA 2: TGGTGGCTACGACGGGATT
B5: CGGAUGG (DNA:RNA)
RNA: B1 RNA with U25C, U26G, C27G, G28A, C30G, C31G
DNA 1: CAATCTGAATTCCGGTCTCCC
DNA 2: TGGTGGCTACGACGGGATT
B6: ACAUGAA (DNA:RNA)
RNA: GGGAGACCGGAAUUCAGAUUGUCCACAUGAAUUAAAUCCCGUCGUAGCCACCA
DNA 1: CAATCTGAATTCCGGTCTCCC
DNA 2: TGGTGGCTACGACGGGATT
B7: GAUUAAA (DNA:RNA)
RNA: B6 RNA with A25G, C26A, A27U, G29A
DNA 1: CAATCTGAATTCCGGTCTCCC
DNA 2: TGGTGGCTACGACGGGATT
B8: UUGGCGG (DNA:RNA)
RNA: B1 RNA with C27G, U29C, C30G, C31G
DNA 1: CAATCTGAATTCCGGTCTCCC
DNA 2: TGGTGGCTACGACGGGATT
B9: GACCAAG (DNA:RNA)
RNA: B6 RNA with A25G, C26A, A27C, U28C, G29A, A31G
DNA 1: CAATCTGAATTCCGGTCTCCC
DNA 2: TGGTGGCTACGACGGGATT
B10: CUAACGG (DNA:RNA)
RNA: B6 RNA with A25C, C26U, U28A, G29C, A30G, A31G
DNA 1: CAATCTGAATTCCGGTCTCCC
DNA 2: TGGTGGCTACGACGGGATT
B11: GCACCAU (DNA:RNA)
RNA: B6 RNA with A25G, U28C, G29C, A31U
DNA 1: CAATCTGAATTCCGGTCTCCC
DNA 2: TGGTGGCTACGACGGGATT
B12: CGCUCCC (DNA:RNA)
RNA: B1 RNA with U25C, U26G, G28U, U29C
DNA 1: CAATCTGAATTCCGGTCTCCC
DNA 2: TGGTGGCTACGACGGGATT
B13: CCCGGCA (DNA:RNA)
RNA: B6 RNA with A25C, A27C, U28G, A30C
DNA 1: CAATCTGAATTCCGGTCTCCC
DNA 2: TGGTGGCTACGACGGGATT
B14: CGCAACA (DNA:RNA)
RNA: B1 RNA with U25C, U26G, G28A, U29A, C31A
DNA 1: CAATCTGAATTCCGGTCTCCC
DNA 2: TGGTGGCTACGACGGGATT
B15: UCAUGUC (DNA:RNA)
RNA: B6 RNA with A25U, A30U, A31C
DNA 1: CAATCTGAATTCCGGTCTCCC
DNA 2: TGGTGGCTACGACGGGATT
B16: GGGUAAA (DNA:RNA)
RNA: B6 RNA with A25G, C26G, A27G, G29A
DNA 1: CAATCTGAATTCCGGTCTCCC
DNA 2: TGGTGGCTACGACGGGATT
B17: GCGAUCU (DNA:RNA)
RNA: B1 RNA with U25G, U26C, C27G, G28A, C31U
DNA 1: CAATCTGAATTCCGGTCTCCC
DNA 2: TGGTGGCTACGACGGGATT
B18: GGGGAUC (DNA:RNA)
RNA: B1 RNA with U25G, U26G, C27G, U29A, C30U
DNA 1: CAATCTGAATTCCGGTCTCCC
DNA 2: TGGTGGCTACGACGGGATT
B19: GGGCUGG (DNA:RNA)
RNA: B1 RNA with U25G, U26G, C27G, G28C, C30G, C31G
DNA 1: CAATCTGAATTCCGGTCTCCC
DNA 2: TGGTGGCTACGACGGGATT
B20: GGCUAAG (DNA:RNA)
RNA: B6 RNA with A25G, C26G, A27C, G29A, A31G
DNA 1: CAATCTGAATTCCGGTCTCCC
DNA 2: TGGTGGCTACGACGGGATT
B21: GCCGGUA (DNA:RNA)
RNA: B6 RNA with A25G, A27C, U28G, A30U
DNA 1: CAATCTGAATTCCGGTCTCCC
DNA 2: TGGTGGCTACGACGGGATT
B22: CGCCGGG (DNA:RNA)
RNA: B6 RNA with A25C, C26G, A27C, U28C, A30G, A31G
DNA 1: CAATCTGAATTCCGGTCTCCC
DNA 2: TGGTGGCTACGACGGGATT
B23: ACCUGGG (DNA:RNA)
RNA: B6 RNA with A27C, A30G, A31G
DNA 1: CAATCTGAATTCCGGTCTCCC
DNA 2: TGGTGGCTACGACGGGATT
B24: UGUGUUC (DNA:RNA)
RNA: B1 RNA with U26G, C27U, C30U
DNA 1: CAATCTGAATTCCGGTCTCCC
DNA 2: TGGTGGCTACGACGGGATT
B25: CGUGUAA (DNA:RNA)
RNA: B6 RNA with A25C, C26G, A27U, U28G, G29U
DNA 1: CAATCTGAATTCCGGTCTCCC
DNA 2: TGGTGGCTACGACGGGATT
B26: GCGUUGC (DNA:RNA)
RNA: B6 RNA with A25G, A27G, G29U, A30G, A31C
DNA 1: CAATCTGAATTCCGGTCTCCC
DNA 2: TGGTGGCTACGACGGGATT
B27: GUUCCCU (DNA:RNA)
RNA: B1 RNA with U25G, C27U, G28C, U29C, C31U
DNA 1: CAATCTGAATTCCGGTCTCCC
DNA 2: TGGTGGCTACGACGGGATT
B28: UACAAAU (DNA:RNA)
RNA: B1 RNA with U26A, G28A, U29A, C30A, C31U
DNA 1: CAATCTGAATTCCGGTCTCCC
DNA 2: TGGTGGCTACGACGGGATT
B29: GCAUACC (DNA:RNA)
RNA: B6 RNA with A25G, G29A, A30C, A31C
DNA 1: CAATCTGAATTCCGGTCTCCC
DNA 2: TGGTGGCTACGACGGGATT
B30: CUGGUUU (DNA:RNA)
RNA: B1 RNA with U25C, C27G, C30U, C31U
DNA 1: CAATCTGAATTCCGGTCTCCC
DNA 2: TGGTGGCTACGACGGGATT
B31: AACCGGU (DNA:RNA)
RNA: B6 RNA with C26A, A27C, U28C, A30G, A31U
DNA 1: CAATCTGAATTCCGGTCTCCC
DNA 2: TGGTGGCTACGACGGGATT

biological target: T1, RBFOX1 RRM RbFoxmut (Fox-RRM*); assay: EMSA; HiTS-Eq, 1 nM pool, 10 min; buffer printed only for the single-RNA assays: 10 mM Tris pH 7.5, 150 mM NaCl, 3.4 mM EDTA, 0.001% NP-40, 30 C; conditions: tags: His6 N-terminal (pET28a); label: 5' 32P
Summary of the method: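 Relative association constants, normalised to the cognate motif, were derived by comparing read counts of each RNA species with those of the control reaction. The RNA sequenced was the free fraction, separated by 8% native PAGE after a 10 min equilibration in 50 µL of 1 nM 5′-radiolabelled RNA (7 randomized nucleotides) with increasing concentrations of purified wild-type or mutant RbFox RRM.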

Binder | binding signal
B1 | 0.0891 KA relative to UGCAUGU
B2 | 0.0707 KA relative to UGCAUGU
B3 | 0.112 KA relative to UGCAUGU
B4 | 0.086 KA relative to UGCAUGU
B5 | 0.175 KA relative to UGCAUGU
B6 | 0.143 KA relative to UGCAUGU
B7 | 0.0844 KA relative to UGCAUGU
B8 | 0.115 KA relative to UGCAUGU
B9 | 0.0689 KA relative to UGCAUGU
B10 | 0.0713 KA relative to UGCAUGU
B11 | 0.0804 KA relative to UGCAUGU
B12 | 0.0599 KA relative to UGCAUGU
B13 | 0.129 KA relative to UGCAUGU
B14 | 0.102 KA relative to UGCAUGU
B15 | 0.199 KA relative to UGCAUGU
B16 | 0.103 KA relative to UGCAUGU

Binder | binding signal
B17 | 0.0432 KA relative to UGCAUGU
B18 | 0.205 KA relative to UGCAUGU
B19 | 0.204 KA relative to UGCAUGU
B20 | 0.0824 KA relative to UGCAUGU
B21 | 0.0981 KA relative to UGCAUGU
B22 | 0.0766 KA relative to UGCAUGU
B23 | 0.0799 KA relative to UGCAUGU
B24 | 0.108 KA relative to UGCAUGU
B25 | 0.144 KA relative to UGCAUGU
B26 | 0.0929 KA relative to UGCAUGU
B27 | 0.0477 KA relative to UGCAUGU
B28 | 0.0515 KA relative to UGCAUGU
B29 | 0.0634 KA relative to UGCAUGU
B30 | 0.087 KA relative to UGCAUGU
B31 | 0.0772 KA relative to UGCAUGU
